# This is one part of the list.
# B1: rCnSL-proB (Clitocybe nebularis) (protein)
# chain: PTFSPIFALLAFLPFGTLASLLPQTQLVFRINPNLPGPNDVFVGYRGTNNVVGAIYERDGIKDTPMNNGADAELGPGSYITDDLFTAQIFASGSAGNNPGTTATVCKIYADGVQWRGAPKGYLPVLYFGNGQAAEQTRQTYLQGLDIPGTAIRFANLAKTPNQGPTAPRQMVVPSGGLQTLLKASCFPANHAALPQVLSYFNVRAALPPGWNIRTGPEFPNWTN
# Key:
# Test in all cases: glycan array binding signal (z-score within array); higher = stronger binding
# Conditions in all cases: glycan notation: IUPAC condensed, linker removed
# [1] = molecular target: Fuc(a1-2)[Gal(a1-3)]Gal(b1-4)GlcNAc(b1-2)Man(a1-3)[Fuc(a1-2)[Gal(a1-3)]Gal(b1-4)GlcNAc(b1-2)Man(a1-6)]Man(b1-4)GlcNAc(b1-4)[Fuc(a1-6)]GlcNAc
# How it was run: (§1)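 Arrays were curated from the Consortium for Functional Glycomics database, 3228 in total, and kept only where the protein sequence was available. Binding is expressed as a within-array Z-score. This score was averaged across arrays of the same protein sequence at different concentrations or buffers and across linkers, and negative values can be read as non-binding.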
# [2] = molecular target: Fuc(a1-2)[Gal(a1-3)]Gal(b1-4)GlcNAc(b1-3)GalNAc
# How it was run: as §1
# [3] = molecular target: Fuc(a1-2)[Gal(a1-3)]Gal(b1-4)GlcNAc(b1-3)[Fuc(a1-2)[Gal(a1-3)]Gal(b1-4)GlcNAc(b1-6)]GalNAc
# How it was run: as §1
# [4] = molecular target: Fuc(a1-2)[Gal(a1-3)]Gal(b1-4)GlcNAc(b1-6)GalNAc
# How it was run: as §1
# [5] = molecular target: Fuc(a1-2)[Gal(a1-3)]Gal(b1-4)[Fuc(a1-3)]Glc
# How it was run: as §1
# [6] = molecular target: Fuc(a1-2)[Gal(a1-3)]Gal(b1-4)[Fuc(a1-3)]GlcNAc
# How it was run: as §1
# [7] = molecular target: Fuc(a1-2)[Gal(a1-3)]Gal(b1-4)[Fuc(a1-3)]GlcNAc(b1-3)GalNAc
# How it was run: as §1
# [8] = molecular target: Fuc(a1-2)[Gal(a1-4)]Gal(b1-4)GlcNAc
# How it was run: as §1
# [9] = molecular target: Fuc(a1-2)[GalNAc(a1-3)]Gal
# How it was run: as §1
# [10] = molecular target: Fuc(a1-2)[GalNAc(a1-3)]Gal(b1-3)GalNAc(a1-3)[Fuc(a1-2)]Gal(b1-4)GlcNAc
# How it was run: as §1
# [11] = molecular target: Fuc(a1-2)[GalNAc(a1-3)]Gal(b1-3)GalNAc(b1-3)Gal(a1-4)Gal(b1-4)Glc
# How it was run: as §1
# [12] = molecular target: Fuc(a1-2)[GalNAc(a1-3)]Gal(b1-3)GlcNAc
# How it was run: as §1
# [13] = molecular target: Fuc(a1-2)[GalNAc(a1-3)]Gal(b1-3)GlcNAc(b1-2)Man(a1-3)[Fuc(a1-2)[GalNAc(a1-3)]Gal(b1-3)GlcNAc(b1-2)Man(a1-6)]Man(b1-4)GlcNAc(b1-4)GlcNAc
# How it was run: as §1
# [14] = molecular target: Fuc(a1-2)[GalNAc(a1-3)]Gal(b1-3)GlcNAc(b1-2)Man(a1-3)[Fuc(a1-2)[GalNAc(a1-3)]Gal(b1-3)GlcNAc(b1-2)Man(a1-6)]Man(b1-4)GlcNAc(b1-4)[Fuc(a1-6)]GlcNAc
# How it was run: as §1
# [15] = molecular target: Fuc(a1-2)[GalNAc(a1-3)]Gal(b1-3)GlcNAc(b1-3)GalNAc
# How it was run: as §1
# [16] = molecular target: Fuc(a1-2)[GalNAc(a1-3)]Gal(b1-3)GlcNAc(b1-6)GalNAc
# How it was run: as §1
# [17] = molecular target: Fuc(a1-2)[GalNAc(a1-3)]Gal(b1-4)Glc
# How it was run: as §1
# [18] = molecular target: Fuc(a1-2)[GalNAc(a1-3)]Gal(b1-4)GlcNAc
# How it was run: as §1
# [19] = molecular target: Fuc(a1-2)[GalNAc(a1-3)]Gal(b1-4)GlcNAc(b1-2)Man
# How it was run: as §1
# [20] = molecular target: Fuc(a1-2)[GalNAc(a1-3)]Gal(b1-4)GlcNAc(b1-2)Man(a1-3)[Fuc(a1-2)[GalNAc(a1-3)]Gal(b1-4)GlcNAc(b1-2)Man(a1-6)]Man(b1-4)GlcNAc(b1-4)GlcNAc
# How it was run: as §1
# [21] = molecular target: Fuc(a1-2)[GalNAc(a1-3)]Gal(b1-4)GlcNAc(b1-2)Man(a1-3)[Fuc(a1-2)[GalNAc(a1-3)]Gal(b1-4)GlcNAc(b1-2)Man(a1-6)]Man(b1-4)GlcNAc(b1-4)[Fuc(a1-6)]GlcNAc
# How it was run: as §1
# [22] = molecular target: Fuc(a1-2)[GalNAc(a1-3)]Gal(b1-4)GlcNAc(b1-3)Gal(b1-4)GlcNAc
# How it was run: as §1
binder,measurement,setting,value
B1,glycan array binding signal (z-score),[1],0.846
same,glycan array binding signal (z-score),[2],-0.036
same,glycan array binding signal (z-score),[3],0.126
same,glycan array binding signal (z-score),[4],-0.048
same,glycan array binding signal (z-score),[5],0.298
same,glycan array binding signal (z-score),[6],0.125
same,glycan array binding signal (z-score),[7],0.632
same,glycan array binding signal (z-score),[8],-0.215
same,glycan array binding signal (z-score),[9],-0.176
same,glycan array binding signal (z-score),[10],1.5
same,glycan array binding signal (z-score),[11],-0.508
same,glycan array binding signal (z-score),[12],0.135
same,glycan array binding signal (z-score),[13],-0.127
same,glycan array binding signal (z-score),[14],3.9
same,glycan array binding signal (z-score),[15],0.307
same,glycan array binding signal (z-score),[16],-0.492
same,glycan array binding signal (z-score),[17],0.269
same,glycan array binding signal (z-score),[18],-0.513
same,glycan array binding signal (z-score),[19],-0.606
same,glycan array binding signal (z-score),[20],-0.08
same,glycan array binding signal (z-score),[21],1.36
same,glycan array binding signal (z-score),[22],-0.679
